Test results reported in paper PMC13083723 (Patterns, 2026).
Among all 5,400 compounds or so, about 190 (3.5%) showed an effect of 50% or more. Some of the results follow.

Tested on: Vero-E6
Assay: primary screen, phospholipidosis by LipidTOX staining; higher = more effect of the substance
Settings: 10 µM
In short: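 Single-concentration screen at 10 μM, with DMSO 0.1 v/v % and amiodarone 10 μM as controls. Read-out is LipidTOX Red phospholipid staining, which tolerates aldehyde fixation, in Vero-E6 cells.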

SMILES | result_ITMP [%]
CC(C)(C)c1cc(C=C(C#N)C#N)cc(Br)c1O | -4.99
CC(=O)[C@H]1CC[C@H]2[C@@H]3CC[C@H]4C[C@H](O)CC[C@]4(C)[C@H]3CC[C@]12C | -0.04
Cc1cc2nc3c(=O)[nH]c(=O)nc-3n(C[C@H](O)[C@H](O)[C@H](O)CO)c2cc1C | -0.43
O=C(NCc1ccc(F)cc1)N1CCN2C(=O)OC(c3ccccc3)(c3ccccc3)C2C1 (centres unmarked) | 1.09
NC[C@H](CC(=O)O)c1ccc(Cl)cc1 | -7.85
C[Se]C[C@H](N)C(=O)O | 2.63
O=C(O)[C@@H]1C[C@@H](O)CN1 | -0.63
CC(N)Cc1ccc(O)cc1 (centres unmarked) | -0.07
CCCCCCCC/C=C/CCCCCCCC(=O)OC[C@H]1O[C@@H](n2ccc(N)nc2=O)C(F)(F)[C@@H]1O | -0.7
NC(=O)Nc1cc(-c2cccc(F)c2)sc1C(=O)N[C@H]1CCCNC1 | -0.08
Nc1ncnc2c1ncn2[C@@H]1O[C@H](COP(=O)(O)OP(=O)(O)OP(=O)(O)OP(=O)(O)OC[C@H]2O[C@@H](n3cnc4c(N)ncnc43)C(O)C2O)C(O)C1O (some centres unmarked) | 0.26
Cc1noc(NS(=O)(=O)c2cccc3c(N(C)C)cccc23)c1C | -1.78
Clc1ccc(N/N=C(\c2ccccc2)c2ccccn2)nc1 | 1.81
CCN(CC)C(=O)c1ccc(O)c(OC)c1 | -1.23
NC1(C(=O)O)CC1 | 0.83
NC(C(=O)O)c1cc(O)no1 (centres unmarked) | -1.46
CO[C@H]1O[C@@H]2O[C@@]3(C)CC[C@H]4[C@H](C)CC[C@@H]([C@H]1C)[C@@]24OO3 | -0.98
C[C@H]1CO[C@@H]2Cn3cc(C(=O)NCc4ccc(F)cc4F)c(=O)c(O)c3C(=O)N12 | -14.2
CCc1[nH]c(=O)[nH]c1C(=O)c1ccncc1 | -3.66
COc1ccc(COc2ccc(CC#N)cc2)cc1 | -6.9
CC(=O)[C@@]1(O)CC[C@H]2[C@@H]3CCC4=CC(=O)CC[C@]4(C)[C@H]3CC[C@@]21C | 0.05
O=C(c1c(F)ccc(NS(=O)(=O)N2CC[C@@H](F)C2)c1F)c1c[nH]c2ncc(-c3cnc(C4CC4)nc3)cc12 | -1.19

SMILES | result_ITMP [%]
CC(=O)N[C@@H](CSC/C=C(\C)CC/C=C(\C)CCC=C(C)C)C(=O)O | -5.85
Nc1nccc(Oc2ccc(NC(=O)c3c[nH]cc(-c4ccc(F)cc4)c3=O)cc2F)c1Cl | -3.79
COC1=C[C@@H]2[C@@H]3Cc4ccc(OC)c(O)c4[C@]2(CCN3C)CC1=O | -3.29
COc1ccc(N(C(=O)Oc2c(C)cccc2C)c2ccnc(Nc3ccc(N4CCN(C)CC4)cc3)n2)c(OC)c1 | -0.06
CC(C)N(CC[C@H](c1ccccc1)c1cc(CO)ccc1O)C(C)C | 9.49
Cn1cc(C(F)(F)F)nc1-c1ccc(OCC(O)CNCCOc2ccc(O)c(C(N)=O)c2)cc1 (centres unmarked) | -1.92
CN1CCN2c3ncccc3Cc3ccccc3C2C1 (centres unmarked) | -8.07
O=C(Nc1cnn2ccc(N3CCC[C@@H]3c3cc(F)ccc3F)nc12)N1CC[C@H](O)C1 | -4.89
CN(C(=O)CN(CCO)CC(=O)N(C)C(C)(C)Cc1ccccc1)C(C)(C)Cc1ccccc1 | -3
COC(=O)N/N=C/c1c[n+]([O-])c2ccccc2[n+]1[O-] | -5.07
CC(C)(Oc1ccc(Cl)cc1)C(=O)OCCOC(=O)c1cccnc1 | 1.59
COc1cc(NS(=O)(=O)c2ccc(N)cc2)ncn1 | -1.77
Cc1cc(C)nc(NS(=O)(=O)c2ccc(N)cc2)n1 | -2.34
CCn1c(=O)c2c(nc(/C=C/c3ccc(OC)c(OC)c3)n2C)n(CC)c1=O | -5.39
C[N@+]12CCCC[C@@H]1CCC(=C(c1cccs1)c1cccs1)C2 (racemic) | -3.77
CC(=O)NCC(=O)N1[C@@H]2CC[C@H]1c1ccc(Nc3ncc(C(F)(F)F)c(NC4CCC4)n3)cc12 | 2.85
c1ccc2cc(C3=NCCN3)ncc2c1 | -2.07
CN([C@@H](Cc1ccc(OS(=O)(=O)c2cccc3cnccc23)cc1)C(=O)N1CCN(c2ccccc2)CC1)S(=O)(=O)c1cccc2cnccc12 | 7.28
C[C@@H]1C/C=C/C=C/C=C/C=C/[C@H](O[C@@H]2O[C@H](C)[C@@H](O)[C@H](N)[C@@H]2O)C[C@@H]2O[C@](O)(C[C@@H](O)C[C@H]3O[C@@H]3/C=C/C(=O)O1)C[C@H](O)[C@H]2C(=O)O | 6.32
O=[N+]([O-])C(Br)(CO)CO | 2.28
CN1C(=O)N[C@H](Cc2c[nH]c3c(Cl)cccc23)C1=O | -1.67
O=c1c(-c2ccc(O)cc2)coc2c(O[C@@H]3O[C@H](CO)[C@@H](O)[C@H](O)[C@H]3O)c(O)ccc12 | -5.15

SMILES | result_ITMP [%]
COc1ccc(Cl)cc1C(=O)NCCc1ccc(S(=O)(=O)NC(=O)NC2CCCCC2)cc1 | -16.6
Nc1nc(=O)n([C@@H]2CS[C@H](CO)O2)cc1F | -4.15
O[C@@H]1CCCC[C@H]1N1CCC(c2ccccc2)CC1 (racemic) | -4.38
CN(Cc1cccc(-c2ccccc2)c1)C(=O)Oc1ccc(-c2ccc(C(N)=O)cc2)cc1 | -5.7
COc1cc(SC)ccc1C(=O)N1CCC(Cc2ccccc2)CC1 | 2.55
CN(C)CCc1ccc(O)cc1 | 6.45
CC#C[C@]1(O)CC[C@H]2[C@@H]3CCC4=CC(=O)CCC4=C3[C@@H](c3ccc(N(C)C)cc3)C[C@@]21C | -1.9
C[C@H]1NCc2cc(-c3ccc4c(=O)c(C(=O)O)cn(C5CC5)c4c3OC(F)F)ccc21 | -1.28
CCc1cccc(CC)c1NC(=O)N1Cc2[nH]nc(NC(=O)c3ccc(N4CCN(C)CC4)cc3)c2C1 | 3.48
CO[C@H]1CC[C@H](N(c2cc(C3=CCCCC3)sc2C(=O)[O-])C(=O)[C@H]2CC[C@H](C)CC2)CC1 | -0.87
COC(=O)N[C@@H](C)CNc1nccc(-c2cn(C(C)C)nc2-c2cc(Cl)cc(NS(C)(=O)=O)c2F)n1 | 6.64
CC[C@@H]1C(=O)N(C)c2cnc(Nc3ccc(C(=O)N[C@H]4CC[C@H](N5CCN(CC6CC6)CC5)CC4)cc3OC)nc2N1C(C)C | 81.5
COC(=O)C1=CO[C@@H](O)[C@@H]2C(CO)=CC[C@H]12 | 2.68
COc1cc2c(NC3CCN(C(C)C)CC3)nc(N3CCC(F)(F)CC3)nc2cc1OCCCN1CCCC1 | 8.94
O=C([O-])P(=O)([O-])[O-] | -2.03
CC(=O)OCC1=C(C(=O)[O-])N2C(=O)[C@@H](NC(=O)CCCC(N)C(=O)[O-])C2SC1 (some centres unmarked) | 1.34
CC(C)(C)c1ccc(S(=O)(=O)Nc2ccc(Cl)cc2C(=O)c2cc[n+]([O-])cc2)cc1 | -0.49
CCCCCCNC(=O)n1cc(F)c(=O)[nH]c1=O | 16.1
COc1ccc2cc(-c3[nH]c(-c4ccc(S(C)=O)cc4)nc3-c3ccncc3)ccc2c1 (centres unmarked) | -3.68
CC(O)c1cc(C(=O)N[C@@H](C)Cn2ccc(-c3ccc(C#N)c(Cl)c3)n2)n[nH]1 (some centres unmarked) | -6.56
Cc1cc(NC(=O)NCCN2CCC(O)(Cc3ccccc3)CC2)c2ccccc2n1 | -2.11
CCN(CC)C(=O)Nc1ccc(OCC(O)CNC(C)(C)C)c(C(C)=O)c1 (centres unmarked) | -0.86

SMILES | result_ITMP [%]
COc1cc(OC)c(NC(=O)Nc2cc(C)on2)cc1Cl | -2.8
O=C(O)C1=CCCN(CCOC(c2ccc(C(F)(F)F)cc2)c2ccc(C(F)(F)F)cc2)C1 | -1.72
O=C(CCBr)N1CCN(C(=O)CCBr)CC1 | 4.8
CCCCC1C(=O)N(c2ccccc2)N(c2ccc(O)cc2)C1=O (centres unmarked) | -3.35
CC1(C)Oc2ccc(C#N)cc2[C@H](N(Cc2ncc[nH]2)c2ccc(Cl)cc2)[C@H]1O | 0.47
NC[C@@](O)(c1ccc(Cl)cc1)c1ccc(-c2cn[nH]c2)cc1 | 63.1
O=c1c(O)c(-c2ccc(O)cc2)oc2cc(O)cc(O)c12 | -2.54
C#C[C@]1(O)CC[C@H]2[C@@H]3CCC4=CC(=O)CCC4=C3C=C[C@@]21CC | -5.99
COc1cc2nc(N3CCN(C(=O)C4COc5ccccc5O4)CC3)nc(N)c2cc1OC (centres unmarked) | 21.3
CN(C)CCCO[C@@H]1[C@H]2OC(C)(C)O[C@H]2O[C@@H]1[C@H](O)CO | -8.5
CC(C)(CCCCCCCCCCC(C)(C)CC(=O)O)CC(=O)O | -8.61
Cc1nccc2[nH]c(=O)ccc12 | -0.1
O=C(Nc1cnc(Cl)nc1)c1ccc(F)c(F)c1 | -0.35
c1ccc(Cn2c(-c3ccc(OC[C@H](C4CCNCC4)n4c(-c5ccccc5)nc5ccccc54)cc3)nc3ccccc32)cc1 | 13.3
CCN(CC)C(=O)C1(c2ccccc2)CC1CN (centres unmarked) | -0.03
Cc1cc(C(C)(C)C)cc(C)c1CC1=NCCN1 | 15
CCN(CCCCOC(=O)c1ccc(OC)c(OC)c1)C(C)Cc1ccc(OC)cc1 (centres unmarked) | 10.5
COc1cc(NC(=O)c2ccccn2)ccc1Cl | 0.69
O=P(O)(O)C(O)(Cn1ccnc1)P(=O)(O)O | -1.98
CCC(C)[C@H]1O[C@]2(C=C[C@@H]1C)C[C@@H]1C[C@@H](C/C=C(\C)[C@@H](OC3C[C@H](OC)C(O[C@H]4C[C@H](OC)[C@@H](O)[C@H](C)O4)[C@H](C)O3)[C@@H](C)/C=C/C=C3\CO[C@@H]4[C@H](O)C(C)=C[C@@H](C(=O)O1)[C@]34O)O2 (some centres unmarked) | -3.77
